Laboratory results from PMC4336329 (PLoS ONE, 2015).
About 14,000 (4.5%) of roughly 310,000 compounds showed an effect of 50% or more. Effects have a minus sign here. The list shows a part of the results. Where a SMILES comes first, the peptide text is derived from it. [ ]: non-standard residue; d: D form. The star is where a group is joined. ξ: configuration not given here. ξY = NC(Cc1ccc(O)cc1)C(=O)O; Cbz = O=C(OCc1ccccc1)*; OtBu = CC(C)(C)O*; tBu = CC(C)(C)*

These compounds were tested against human ether-à-go-go-related gene (hERG) potassium channel (human, UniProt Q12809) (assay: primary screen, population patch clamp on CHO cells stably expressing hERG).
Sequence of human ether-à-go-go-related gene (hERG) potassium channel (Q12809 whole entry, looked up): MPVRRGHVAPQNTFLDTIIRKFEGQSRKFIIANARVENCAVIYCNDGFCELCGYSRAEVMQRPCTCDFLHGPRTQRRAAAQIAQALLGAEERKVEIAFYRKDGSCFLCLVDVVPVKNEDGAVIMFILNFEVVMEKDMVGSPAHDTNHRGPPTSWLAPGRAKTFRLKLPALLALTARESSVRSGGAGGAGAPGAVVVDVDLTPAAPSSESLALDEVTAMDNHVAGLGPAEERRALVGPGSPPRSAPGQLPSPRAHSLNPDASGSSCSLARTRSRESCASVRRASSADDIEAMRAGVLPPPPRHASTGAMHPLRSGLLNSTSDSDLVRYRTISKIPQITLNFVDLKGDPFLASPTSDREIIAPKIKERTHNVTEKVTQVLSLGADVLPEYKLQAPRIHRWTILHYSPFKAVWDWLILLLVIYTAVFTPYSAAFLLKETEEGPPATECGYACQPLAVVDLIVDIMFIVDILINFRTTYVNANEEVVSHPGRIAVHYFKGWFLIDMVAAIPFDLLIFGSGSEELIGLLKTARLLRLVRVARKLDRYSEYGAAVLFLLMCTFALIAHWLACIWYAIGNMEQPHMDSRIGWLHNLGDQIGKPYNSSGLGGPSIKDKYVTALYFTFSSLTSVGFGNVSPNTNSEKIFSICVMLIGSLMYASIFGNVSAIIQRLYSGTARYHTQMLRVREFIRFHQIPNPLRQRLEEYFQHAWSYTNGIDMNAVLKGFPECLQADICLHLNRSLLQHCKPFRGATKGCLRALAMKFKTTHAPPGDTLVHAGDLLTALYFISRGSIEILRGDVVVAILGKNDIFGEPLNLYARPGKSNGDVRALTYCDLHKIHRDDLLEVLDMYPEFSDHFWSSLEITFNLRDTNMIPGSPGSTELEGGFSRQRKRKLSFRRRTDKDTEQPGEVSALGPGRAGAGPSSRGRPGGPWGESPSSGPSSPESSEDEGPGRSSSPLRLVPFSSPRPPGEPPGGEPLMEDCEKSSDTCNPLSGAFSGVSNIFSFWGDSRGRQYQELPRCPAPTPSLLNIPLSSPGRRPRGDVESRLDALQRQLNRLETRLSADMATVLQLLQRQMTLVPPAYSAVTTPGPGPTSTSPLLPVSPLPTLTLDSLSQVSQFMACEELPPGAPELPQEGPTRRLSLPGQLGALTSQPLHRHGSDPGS
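Further: peak tail current of the secondary pulse compared with the same well before compound.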

Structure (SMILES)	hERG current change (%, negative = inhibition) at 10uM [%]
S=c1[nH]nc(C2CCCCC2)n1/N=C/c1ccccc1Cl	16.2
CCCCn1c(N)c(N(CCC(C)C)C(=O)CSc2nnc(Nc3ccccc3)s2)c(=O)[nH]c1=O	1.18
Cc1ccc(N2C(=O)[C@@H]3[C@H](C2=O)C2c4ccccc4C=CN2[C@@H]3C(=O)c2ccco2)c(C)c1 (stereo partly drawn)	-5.68
COc1ccccc1-c1nc2cc3ccccc3cc2nc1-c1ccccc1	-0.34
CC(=O)N/C(=C\c1ccccc1)C(=O)OC(C)C(=O)Nc1ccccc1F (stereo not drawn)	9.58
Cn1c(SCC(=O)NCc2ccc3c(c2)OCO3)nc2c(c1=O)SCC2	-21
COc1ccc(CNC(=O)C2CCN(S(=O)(=O)N3CC(C)CC(C)C3)CC2)cc1 (stereo not drawn)	22.9
CCOc1ccc(NS(=O)(=O)c2c(C(=O)N3CCCCCC3)c(C)n(C)c2C)cc1	8.34
O=[N+]([O-])c1ccc(CSc2nnc(Cc3ccccc3)n2-c2ccc(F)cc2)cc1	-48.7
CC1(C)Oc2ccc3ccc(=O)oc3c2[C@@H](O)[C@H]1O	15.5
O=C1CC(=O)Nc2cc(S(=O)(=O)Nc3ccc(Cl)c(C(F)(F)F)c3)ccc2N1	16.8
O=C(O)c1ccc(CSc2nnc(-c3ccncc3)n2-c2ccc(Cl)cc2)cc1	8.71
O=S1(=O)NC(=NCCc2ccccn2)c2ccccc21	11.5
CC(C)(C)OC(=O)N1CCC(CC2CC(c3ccccc3)=NO2)(C(=O)O)CC1 (stereo not drawn)	14.7
O=C1Cc2ccccc2N1c1ccccc1	-5.58
O=C(NCCO)c1ccc2[nH]c3c(c2c1)CCCC3	-0.0914
Cn1c(Cc2nc(-c3cnccn3)no2)nnc1SCC(=O)Nc1ccccc1	1.06
COc1ccc(OC)c(NC(=S)NCc2ccccc2OC)c1	5.94
CCOC(=O)C1CCN(C(=O)c2cc3cc(F)ccc3[nH]2)CC1	-49.5
Nc1ccc(Cl)c[n+]1Cc1cccc2cccnc12.[Br-]	-46.1
CSc1ccccc1NC(=O)CN(C)C(=O)c1ccc(NC(=O)c2cccs2)cc1	9.13

Structure (SMILES)	hERG current change (%, negative = inhibition) at 10uM [%]
COc1ccc(CC(=O)OCC(=O)Nc2ncc(Cl)cc2Cl)cc1OC	13.5
O=C(Oc1cccnc1)c1cc(S(=O)(=O)N2CCOCC2)ccc1Cl	-13.9
Cc1ccc(CN(C)C(=O)COC(=O)CSc2ccc(C(N)=O)cc2[N+](=O)[O-])cc1	-9.91
COc1ccc(C(=O)N/N=C\c2ccoc2)cc1	20.8
O=C(NC(=S)Nc1cc(Cl)ccc1N1CCOCC1)c1ccccc1[N+](=O)[O-]	4.51
CCOC(=O)c1cn2nc(Oc3cccc(F)c3)ccc2n1	-11.6
CC(C)(C)OC(=O)C(Cc1ccc(OC(C)(C)C)cc1)NC(=O)CNC(=O)CNC(=O)OCc1ccccc1 (stereo not drawn) (Cbz-Gly-Gly-[ξY](tBu)-OtBu)	-2.33
Br.Cc1ccccc1Cn1c(=N)n(CC(=O)c2ccco2)c2ccccc21	-65
COc1ccc(C(C(=O)NC2CCCCC2)N(C(=O)CCl)c2ccc(C)cc2)cc1 (stereo not drawn)	2.21
Oc1c(Br)cccc1/C=N/Nc1c(F)c(F)c(F)c(F)c1F	-3.97
CCOc1cc(C)c(S(=O)(=O)N2CCCC2)cc1C	-14.6
COc1ccc(NC(=O)c2nc3nc(C)cc(C(F)F)n3n2)cc1OC	4.43
CC1CCc2c(c3ccccc3[nH]c2=O)O1 (stereo not drawn)	6.76
CCCCC(=O)Nc1cc(-c2nc3ncccc3o2)ccc1C	-1.76
COc1cccc(-c2nnc3sc(-c4ccco4)nn23)c1	16.4
O=C(O)c1cccc(NC(=O)c2ccc(N3C(=O)c4ccc(C(=O)Nc5cccc(C(=O)O)c5)cc4C3=O)cc2)c1	-2.1
Cc1c(NC(=O)CN2CCN(c3ccc([N+](=O)[O-])cc3)CC2)c(=O)n(-c2ccccc2)n1C	-50.1
Cn1c(=O)c2c(nc(SC3C(=O)CC(C)(C)CC3=O)n2C)n(C)c1=O	6.36
COc1cc(NS(=O)(=O)c2ccc(NC(=O)c3ccc([N+](=O)[O-])cc3)cc2)ncn1	-4.86
Cc1occc1-c1nnc(SCC(=O)N2CCCCC2)o1	-8.31
COc1ccc(NC(=O)c2cccc(N3C(=O)C4C5C=CC(C5)C4C3=O)c2)c(OC)c1 (stereo not drawn)	0.993

Structure (SMILES)	hERG current change (%, negative = inhibition) at 10uM [%]
Cc1ccc(NC(=O)C(C)N2C(=O)C3C4CC(C(Br)C4Br)C3C2=O)cc1 (stereo not drawn)	16.4
O=C(Nc1cccc(-c2cn3c(n2)SCC3)c1)c1ccc(Br)o1	-2.79
O=C1Nc2ccc(Br)cc2C1(O)Cc1ccncc1 (stereo not drawn)	-2.45
O=C(COc1ccccc1)Nn1c(-c2ccccc2)nc2ccccc2c1=O	-9.19
O=C1CC(C(=O)Nc2ccc(Cl)cc2)n2ncnc2N1 (stereo not drawn)	5.96
Cn1nnnc1SCCNC/C=C/c1ccccc1	-15.3
COc1cccc(-c2ccc(=O)n(CC(=O)Nc3cc4c(cc3NC(C)=O)OCCO4)n2)c1	4.63
CC1(C)[C@H]2CC[C@]1(C)[C@@H](OC(=O)C[N+]1(C)CCOCC1)C2.[I-]	14
CC1(C)CC(=O)C2=C(C1)OC(N)=C(C#N)C2c1cn(-c2ccccc2)nc1-c1ccc(F)cc1 (stereo not drawn)	-25.5
CCn1c(SCC(=O)N2CCN(c3cccc(Cl)c3)CC2)nc2ccccc2c1=O	-39.1
CN(CC(=O)O/N=C(\N)c1ccccn1)S(=O)(=O)c1cc(Cl)ccc1Cl	-14.2
CC(C)(C)c1ccc(/C=C/C(=O)Nc2ncccn2)cc1	-25.9
COc1ccc(C(=O)OCCc2cc3ccccc3c(=O)o2)cc1	-9.55
O=C(CNS(=O)(=O)c1ccc(Br)s1)Nc1ccc2c(c1)OCCO2	-9.7
COc1ccc(OC)c(C2CC(=O)N3CN(c4ccccc4F)CSC3=C2C#N)c1 (stereo not drawn)	15.2
COc1ccc(CCC(=O)Nc2ccc(Cl)c(S(=O)(=O)N3CCCC3)c2)cc1	-22
Cc1cc(OCC(=O)OCC(=O)NCC2CCCO2)ccc1Cl (stereo not drawn)	3.39
CCN(CC)S(=O)(=O)c1ccc(NC(=O)C2CCCO2)cc1 (stereo not drawn)	6.96
COc1cccc(OC)c1-c1nn2c(-c3ccccc3Cl)nnc2s1	-10.6
COc1ccc(Cl)cc1NC(=O)C(C)N(C)Cc1ccc(C(F)(F)F)cc1 (stereo not drawn)	11.2
Cc1cc(NC(=O)CCCN2C(=O)c3cccc4cccc(c34)C2=O)no1	4.73

Structure (SMILES)	hERG current change (%, negative = inhibition) at 10uM [%]
COc1ccc(CC(=O)N2CCN=C2SC)cc1OC	2.82
COCCNC(=O)c1ccc(N2CC3CC(C2)c2cccc(=O)n2C3)c(NC(=O)c2ccc(Br)o2)c1 (stereo not drawn)	10.9
COc1ccccc1Nc1nnc(SCc2cc(=O)n3cc(C)ccc3n2)s1	-12.8
Cc1occc1-c1nnc(SCc2nc3ccccc3c(=O)n2CC#N)n1C	-21.5
Cc1cc(C)n(CCSCC(=O)O)n1	12.5
CCOC(=O)Cc1csc(NC(=O)CSc2ncnc3c2cnn3-c2ccc(OC)cc2)n1	5.81
Cc1cccc(N2C(=O)N3[C@H](c4ccc(F)cc4)[C@@H]4C(=O)N(C5CCCCC5)C(=O)[C@@H]4[C@]3(Cc3ccccc3)C2=O)c1	6.3
O=C(c1nc2ccc(Cl)cn2c1CN1CCCC1)N1CCc2ccccc2C1	-10.6
CN(C#N)c1nc(Cl)nc(Nc2cccc(Cl)c2)n1	7.58
CCc1cccc(CC)c1C(OC(C)=O)c1cccnc1 (stereo not drawn)	-0.238
O=c1oc(-c2ccco2)nc2ccccc12	6.96
COc1cc(S(=O)(=O)Nc2cccc(C(=O)O)c2)c(OC)cc1Cl	13.3
COc1ccc(NC(=O)CN2CCN(C3c4ccccc4-c4ccccc43)CC2)c(OC)c1	-10.5
O=C(CN(CC1CCCO1)C(=O)CNS(=O)(=O)c1ccccc1)NCc1ccco1 (stereo not drawn)	13.2
CC(C)[C@H](NC(=O)OC(C)(C)C)C(=O)N/N=C/c1ccc2nccnc2c1	5.34
Cc1ccc(C2NC(=O)c3c(sc(C)c3C)N2)c(O)c1 (stereo not drawn)	-3.45
CCOc1ccc(/C=C2\SC(=S)N(CCCC(=O)NCCCN3CCOCC3)C2=O)cc1	-4.5
O=C(COC(=O)c1oc2ccccc2c1COc1ccccc1)NCCN1C(=O)CSC1=O	-31.6
O=C1CSC(c2cccc([N+](=O)[O-])c2)N1c1ccccc1F (stereo not drawn)	-19.4
CC1(C)Cc2c(c(N3CCOCC3)nc3sc(C(N)=O)c(N)c23)CO1	-5.66
COc1ccc(C2C=C(c3ccc(F)cc3)NC(=S)N2)cc1OC (stereo not drawn)	-2.12
